Experimental data published in patent US20230365653A1 (MABWELL SHANGHAI BIOSCIENCE, published 2023).

T1: human TGF-β 2 (Cat: CJ79, Novoprotein Scientific Inc.) (human, UniProt P61812 303-414)
T1 construct: Bought reagent; also called recombinant human TGF-β 2 protein
T1 sequence (looked up): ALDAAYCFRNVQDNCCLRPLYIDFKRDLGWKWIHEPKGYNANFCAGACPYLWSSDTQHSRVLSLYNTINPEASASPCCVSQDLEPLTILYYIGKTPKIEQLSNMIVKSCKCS


Legend:
[1] = target: T2, recombinant human PD-L1-his protein (Accession No.: NP_054862.1, 19 aa-238 aa) (human, UniProt Q9NZQ7 part only); experiment: BLI (Octet QKe), binder captured on AHC biosensor, analyte 60 nM, 1:1 fit
T2 construct: range 19-238; also called recombinant human PD-L1 extracellular domain protein; not shown: his tag

[2] = target: T3, recombinant human TGF-β 1 protein (Cat: CA59, Novoprotein Scientific Inc.) (human, UniProt P01137 part only); experiment: as above
T3 construct: Bought reagent

[3] = target: T3, recombinant human TGF-β 1 protein (Cat: …); experiment: BLI (Octet QKe), binder captured on AHC biosensor, 1:1 fit
[4] = target: T1, human TGF-β 2 (Cat: CJ79, Novoprotein …); experiment: ELISA, target coated at 1 µg/ml, HRP-anti-human Fc detection
[5] = target: T3, recombinant human TGF-β 1 protein (Cat: …); experiment: as above

T2 sequence (Q9NZQ7 19-238 limits assumed): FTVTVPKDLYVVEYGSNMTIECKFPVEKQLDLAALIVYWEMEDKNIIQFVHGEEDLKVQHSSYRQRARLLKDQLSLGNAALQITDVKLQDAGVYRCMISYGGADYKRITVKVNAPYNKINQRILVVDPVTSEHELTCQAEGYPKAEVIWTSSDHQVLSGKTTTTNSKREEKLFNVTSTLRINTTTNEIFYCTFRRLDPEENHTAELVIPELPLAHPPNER
T3 sequence (P01137 279-390 limits assumed): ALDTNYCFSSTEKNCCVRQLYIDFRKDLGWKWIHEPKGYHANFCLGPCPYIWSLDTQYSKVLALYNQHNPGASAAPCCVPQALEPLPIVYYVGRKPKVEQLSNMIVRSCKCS

Binder	Kd [1] [nM]	Kd [2] [nM]	Kd [3] [nM]	EC50 [4] [nM]	EC50 [5] [nM]
anti-human PD-L1 antibody/TGF-β RII fusion protein H182-MUT4-TGF-β RII (other, Bifunctional fusion: the antibody heavy chain is linked at its C-terminus through a linker to the TGF-β RII extracellular domain; 9; also called parent; original) heavy: EVQLVQSGAEVKKPGATVKISCKVSGFNIKDIYMHWVQQAPGKGLEWMGRIDPANANTKYDPKFQDRVTITADTSTNTAYMELSSLRSEDTAVYYCASGQLGPLGFDYWGQGTTVTVSS[human IgG1 constant region not written out]GGGGSGGGGSGGGGSGGGGSGIPPHVQKSVNNDMIVTDNNGAVKFPQLCKFCDVRFSTCDNQKSCMSNCSITSICEKPQEVCVAVWRKNDENITLETVCHDPKLPYHDFILEDAASPKCIMKEKKKPGETFFMCSCSSDECNDNIIFSEEYNTSNPD light: DIQMTQSPSSLSASVGDRVTITCRASQDISNYLNWYQQKPGKAPKLLLYYTSRLHSGVPSRFSGSGSGTDYTLTISSLQPEDFATYFCQQGAGRPYTFGGGTKVEIKRTVAAPSVFIFPPSDEQLKSGTASVVCLLNNFYPREAKVQWKVDNALQSGNSQESVTEQDSKDSTYSLSSTLTLSKADYEKHKVYACEVTHQGLSSPVTKSFNRGEC	0.381	1.45	–	–	–
anti-human PD-L1 antibody/TGF-β RII fusion protein mutant H182-MUT4-TGF-β RIIm3 (other, also called H182-MUT4-H-TGF-β RII m3) heavy: EVQLVQSGAEVKKPGATVKISCKVSGFNIKDIYMHWVQQAPGKGLEWMGRIDPANANTKYDPKFQDRVTITADTSTNTAYMELSSLRSEDTAVYYCASGQLGPLGFDYWGQGTTVTVSS[human IgG1 constant region not written out]GGGGSGGGGSGGGGSGGGGSGIPPHVQKSVNNTMIVTDNNGAVKFPQLCKFCDVRFSTCDNQKSCMSNCSITSICEKPQEVCVAVWRKNDENITLETVCHDPKLPYHDFILEDAASPKCIMKEKKKPGETFFMCSCSSDECNDNIIFSEEYNTSNPD light: DIQMTQSPSSLSASVGDRVTITCRASQDISNYLNWYQQKPGKAPKLLLYYTSRLHSGVPSRFSGSGSGTDYTLTISSLQPEDFATYFCQQGAGRPYTFGGGTKVEIKRTVAAPSVFIFPPSDEQLKSGTASVVCLLNNFYPREAKVQWKVDNALQSGNSQESVTEQDSKDSTYSLSSTLTLSKADYEKHKVYACEVTHQGLSSPVTKSFNRGEC	0.311	1.22	–	–	–
anti-human PD-L1 nanobody/TGF-β RII fusion protein mutant hzF2-TGF-β RIIm2 (other, 23; It was purified on Protein A, captured by anti-human IgG Fc biosensors and detected with anti-human Fc, so it carries a human Fc; not shown: linker peptide; amino) chain (part 1 of 2): EVQLVESGGGLVQPGGSLRLSCAASRDSDEGASCMGWFRQAPGKEREGVAIIFNAGERTDYGDSVKGRFTISRDNAKNTLYLQMNSLRAEDTAVYYCATVWCGSWVARSWGQGTLVTVSSAS[human IgG1 Fc with changes not written out] chain (part 2 of 2): IPPHVNKSVNNDMIVTDNNGAVKFPQLCKFCDVRFSTCDNQKSCMSNCSITSICEKPQEVCVAVWRKNDENITLETVCHDPKLPYHDFILEDAASPKCIMKEKKKPGETFFMCSCSSDECNDNIIFSEEYNTSNPD	–	–	2.46	18	0.394

More lines, in order of falling Kd [1], values ahead:

Kd [1] [nM]	Kd [2] [nM]	Kd [3] [nM]	EC50 [4] [nM]	EC50 [5] [nM]	Binder
0.305	1.34	–	–	–	anti-human PD-L1 antibody/TGF-β RII fusion protein mutant H182-MUT4-TGF-β RIIm2 (other, also called H182-MUT4-H-TGF-β RII m2) heavy: EVQLVQSGAEVKKPGATVKISCKVSGFNIKDIYMHWVQQAPGKGLEWMGRIDPANANTKYDPKFQDRVTITADTSTNTAYMELSSLRSEDTAVYYCASGQLGPLGFDYWGQGTTVTVSS[human IgG1 constant region not written out]GGGGSGGGGSGGGGSGGGGSGIPPHVNKSVNNDMIVTDNNGAVKFPQLCKFCDVRFSTCDNQKSCMSNCSITSICEKPQEVCVAVWRKNDENITLETVCHDPKLPYHDFILEDAASPKCIMKEKKKPGETFFMCSCSSDECNDNIIFSEEYNTSNPD light: DIQMTQSPSSLSASVGDRVTITCRASQDISNYLNWYQQKPGKAPKLLLYYTSRLHSGVPSRFSGSGSGTDYTLTISSLQPEDFATYFCQQGAGRPYTFGGGTKVEIKRTVAAPSVFIFPPSDEQLKSGTASVVCLLNNFYPREAKVQWKVDNALQSGNSQESVTEQDSKDSTYSLSSTLTLSKADYEKHKVYACEVTHQGLSSPVTKSFNRGEC
0.297	1.14	–	–	–	anti-human PD-L1 antibody/TGF-β RII fusion protein mutant H182-MUT4-TGF-β RIIm1 (other, also called H182-MUT4-H-TGF-β RII m1) heavy: EVQLVQSGAEVKKPGATVKISCKVSGFNIKDIYMHWVQQAPGKGLEWMGRIDPANANTKYDPKFQDRVTITADTSTNTAYMELSSLRSEDTAVYYCASGQLGPLGFDYWGQGTTVTVSS[human IgG1 constant region not written out]GGGGSGGGGSGGGGSGGGGSGIPPHVQKSVNNDMIVTDNNTAVKFPQLCKFCDVRFSTCDNQKSCMSNCSITSICEKPQEVCVAVWRKNDENITLETVCHDPKLPYHDFILEDAASPKCIMKEKKKPGETFFMCSCSSDECNDNIIFSEEYNTSNPD light: DIQMTQSPSSLSASVGDRVTITCRASQDISNYLNWYQQKPGKAPKLLLYYTSRLHSGVPSRFSGSGSGTDYTLTISSLQPEDFATYFCQQGAGRPYTFGGGTKVEIKRTVAAPSVFIFPPSDEQLKSGTASVVCLLNNFYPREAKVQWKVDNALQSGNSQESVTEQDSKDSTYSLSSTLTLSKADYEKHKVYACEVTHQGLSSPVTKSFNRGEC
